# Measurements published in PMC4336329 (PLoS ONE, 2015).
# Among all 310,000 compounds or so, about 14,000 (4.5%) showed an effect of 50% or more. Effects have a minus sign here. The list shows a part of the results.
# Target: human ether-à-go-go-related gene (hERG) potassium channel (human, UniProt Q12809)
# Test: primary screen, population patch clamp on CHO cells stably expressing hERG
# 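Also: peak tail current of the secondary pulse compared with the same well before compound.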
# Sequence of human ether-à-go-go-related gene (hERG) potassium channel (Q12809 whole entry, looked up): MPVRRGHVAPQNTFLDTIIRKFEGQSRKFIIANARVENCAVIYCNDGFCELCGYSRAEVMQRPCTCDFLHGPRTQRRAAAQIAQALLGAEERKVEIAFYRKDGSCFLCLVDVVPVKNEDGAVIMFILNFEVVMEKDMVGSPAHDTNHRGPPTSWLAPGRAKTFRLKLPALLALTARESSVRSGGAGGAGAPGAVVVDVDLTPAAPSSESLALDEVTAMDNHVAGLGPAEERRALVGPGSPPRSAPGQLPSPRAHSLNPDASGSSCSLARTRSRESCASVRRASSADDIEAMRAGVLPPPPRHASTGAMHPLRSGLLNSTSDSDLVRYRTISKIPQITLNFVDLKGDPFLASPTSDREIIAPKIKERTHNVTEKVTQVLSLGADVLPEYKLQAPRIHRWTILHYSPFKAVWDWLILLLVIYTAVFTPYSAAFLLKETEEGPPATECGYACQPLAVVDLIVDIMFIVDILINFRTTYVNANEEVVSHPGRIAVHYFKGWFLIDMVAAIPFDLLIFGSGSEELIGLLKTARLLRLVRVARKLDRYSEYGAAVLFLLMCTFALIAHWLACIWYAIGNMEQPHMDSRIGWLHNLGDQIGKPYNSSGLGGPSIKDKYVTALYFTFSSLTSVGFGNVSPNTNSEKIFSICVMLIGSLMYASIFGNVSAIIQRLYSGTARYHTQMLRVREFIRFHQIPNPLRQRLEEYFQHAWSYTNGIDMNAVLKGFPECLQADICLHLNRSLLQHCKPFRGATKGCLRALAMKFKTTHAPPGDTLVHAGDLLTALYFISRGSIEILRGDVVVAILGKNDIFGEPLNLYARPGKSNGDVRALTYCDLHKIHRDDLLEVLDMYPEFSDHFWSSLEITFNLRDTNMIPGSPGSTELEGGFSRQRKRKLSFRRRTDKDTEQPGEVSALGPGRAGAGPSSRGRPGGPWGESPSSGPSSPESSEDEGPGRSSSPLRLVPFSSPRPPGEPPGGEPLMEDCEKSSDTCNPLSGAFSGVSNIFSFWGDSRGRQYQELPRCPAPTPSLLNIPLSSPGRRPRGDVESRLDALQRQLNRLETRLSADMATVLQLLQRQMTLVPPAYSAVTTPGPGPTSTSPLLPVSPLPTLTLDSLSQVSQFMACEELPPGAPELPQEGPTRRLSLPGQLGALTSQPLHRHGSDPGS
row,Compound,"hERG current change (%, negative = inhibition) at 10uM [%]"
1,O=C1OC(N2C(=O)CC[C@H]2C(=O)Nc2ccc(F)c(F)c2)c2ccccc21 (stereo partly shown),5.46
2,O=C(Nc1cccc(S(=O)(=O)NC2=NCCC2)c1)c1cnc(Cl)c(Cl)c1,0.368
3,CC(NC(=O)C(=O)NN=C1CCCC1)c1ccccc1 (stereo not shown),16.5
4,O=S(=O)(c1cccs1)N1CCN(c2ccccc2Cl)CC1,9.51
5,COc1ccc(NC(=O)CSc2nc3c(c(-c4cccs4)c2C#N)CN(C)CC3)cc1OC,1.65
6,COc1cc(C=C(c2nc3ccccc3s2)c2nc3ccccc3s2)ccc1O,16.2
7,CC(=O)c1cnc2c(-c3ccccc3)c(C(F)(F)F)nn2c1C,10
8,Cc1cc(=O)oc2c3c(cc(OCC(=O)N4CCC[C@H]4C(=O)O)c12)OC(C)(C)CC3,4.73
9,CCN(CC)S(=O)(=O)c1cc(C(=O)Nc2nncs2)c(Cl)cc1Cl,-21
10,O=C(COC(=O)Cc1ccc(S(=O)(=O)N2CCOCC2)s1)NCc1ccccc1,-18.6
11,COc1ccccc1NC(=O)c1ccc(NC2=NC3CS(=O)(=O)CC3S2)cc1 (stereo not shown),24.8
12,COc1ccc(-c2nnn(CC(=O)N(CCCN3CCOCC3)C(C(=O)NC3CCCC3)c3ccco3)n2)cc1 (stereo not shown),-40.3
13,O=C(NNC(=O)c1cc2ccccc2cc1O)Nc1ccccc1F,14.4
14,O=C1CN(C(=O)COC(=O)c2ccccc2O)c2ccccc2N1,-2.67
15,CCOc1ccc(S(=O)(=O)NCc2ccncc2)cc1NC(=O)c1ccccc1F,21.1
16,Cc1ccc(OCCCC(=O)Nc2ccc3c(c2)OCO3)cc1,5.14
17,COc1ccc(Nc2nc(N)nc(CN3CCC(Cc4ccccc4)CC3)n2)cc1,-79
18,COc1ccc(N2CCN(C(=O)c3ccc(CS(=O)(=O)c4ccccc4C)o3)CC2)cc1,-21.5
19,O=C(COC(=O)CN=C1NS(=O)(=O)c2ccccc21)Nc1ccccc1OC(F)F,3.22
20,Cc1cc(C)nc(SCc2nnc(SCC(N)=O)n2Cc2ccco2)n1,-7.19
21,COc1ccc(-n2c(SC3CCOC3=O)nc3ccccc3c2=O)cc1Cl (stereo not shown),-18.7
22,Cc1ccc(S(=O)(=O)NN2C(=O)/C(=C/c3ccc(F)cc3)SC2=S)cc1,5.44

row,Compound,"hERG current change (%, negative = inhibition) at 10uM [%]"
1,O=C(CN1CCN(Cc2ccccc2)CC1)N/N=C/c1ccco1,-5.43
2,CCN(CC)C(=O)CCCSc1nnc(Nc2ccccc2F)s1,-23.1
3,CCOC(=O)c1cc(CC)sc1NC(=O)c1cc(OCC)c(OCC)c(OCC)c1,8.61
4,COc1ccc(S(=O)(=O)NCC2CCC(C(=O)NCCC(C)C)CC2)cc1 (stereo not shown),3.43
5,O=[N+]([O-])c1ccc(-n2cc(-c3ccccc3)nn2)cc1,-29.4
6,Cc1ccc(C2=NOC(C)(c3nnc(Cc4ccccc4)o3)C2)cc1 (stereo not shown),-15.2
7,COc1ccc(-c2cc(C(=O)NCCc3ccccc3)no2)cc1OC,18.5
8,COc1c(C)c2c(c(O)c1C/C=C(\C)CCC(=O)O)C(=O)OC2,14.7
9,CC(C)N1C(=O)C2C(C(=O)NC3CCCCC3)C3C=CC2(O3)C1C(=O)NC1CCCCC1 (stereo not shown),1.37
10,CC(C)c1cc(CN2CCN(Cc3ccc(F)c(F)c3)C(CCO)C2)[nH]n1 (stereo not shown),-52.4
11,CCCCCCC(=O)N=Nc1c(O)[nH]c2ccc([N+](=O)[O-])cc12,7.11
12,OC(COC(c1ccccc1)c1ccccc1)CN1CCCCC1 (stereo not shown),-62.9
13,O=C(COc1ccc(S(=O)(=O)N2CCOCC2)cc1)N1CCN(Cc2ccc3c(c2)OCO3)CC1,-10
14,Clc1ccc(C2Nc3cccc4cccc(c34)N2)cc1Cl,24.8
15,COc1ccc2[nH]cc(CCN=C3SCC(=O)N3C)c2c1,13.9
16,O=C(O)C1C2C=CC(C2)C1C(=O)NCc1ccc(Cl)c(Cl)c1 (stereo not shown),21.6
17,FC(F)(F)c1nnc(-c2ccccc2)nc1N1CCCC1,17.2
18,C=CCn1c(=NC(=O)C2COc3ccccc3O2)sc2cccc(OC)c21 (stereo not shown),21.2
19,COc1cc(CNC(C)c2ccccc2)c(Br)cc1OCC(N)=O (stereo not shown),-17.2
20,COc1cc(/C=C2\CCC(C3CCCC3)C2=O)cc(OC)c1OC (stereo not shown),9.98
21,O=C(NC(=S)N1CCN(c2ccc([N+](=O)[O-])cc2)CC1)c1ccccc1F,-25.8
